# Measurements reported in PubChem BioAssay AID1963576 (National Center for Advancing Translational Sciences (NCATS), 2024).
# Among all 46,000 compounds or so, about 60 (0.1%) were called active. Inconclusive results (about 3%) are left out. Calls come from the whole dose curve; as a rule, active = well fitted inhibition curve with a large enough effect; inconclusive = small, poorly fitted or top-dose-only effect; inactive = no such curve, though single readings can be large or run the other way. The list shows a part of the results.
# Test: Primary qHTS assay for Inhibitors of ovarian cancer metastasis using an organotypic tumor microenvironment (TME) model.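 For activity change, negative = inhibition: plate controls were DMSO wells for no effect and tomatine positive control wells for full effect.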 Note: nearly all actives have a fitted effect of over 65% in size.
# Settings: SKOV3ip1-GFP adhesion/invasion on 3D omental model, fluorescence; series mostly up to 45.8 µM; activity change, negative = inhibition: at the top concentration
# How it was run: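 qHTS, 4-pt dose (0.36-46 umol/L); SKOV3ip1-GFP, 1,200 cells/well, no FBS; primary omental fibroblast/mesothelial co-culture 48 h pre-grown; 2 h RT + 16 h 37 C; PBS wash, 4% PFA; GFP count 488/509 nm.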
SMILES,"activity change, negative = inhibition",outcome
Cc1ccc(OCC(=O)Nc2cc(-c3nc4ccccc4[nH]3)ccc2C)c(C)c1,inactive: -16.4%,
CC(=O)c1ccc(NC(=O)c2ccc(NC(=O)CCS(=O)(=O)c3cccs3)cc2)cc1,inactive: 2.51%,
Cc1cccc(Cn2cc(S(=O)(=O)c3ccc(Cl)cc3)c(=O)c3cc4c(cc32)OCO4)c1,inactive: 0.0792%,
COc1cccc(NC(=O)C(=O)NCCc2csc(-c3ccc(C)cc3)n2)c1,inactive: -13%,
CCCn1cc(S(=O)(=O)c2ccc(C)cc2)c(=O)c2cc(OC)c(OC)cc21,inactive: 2.77%,
COc1ccc(C2=C(C)C(N3CCC(C(=O)Nc4cc(C)ccc4C)CC3)=NS2(=O)=O)cc1,inactive: -3.5%,
CCN(C(=O)CCNC(=O)Cn1cnc2ccccc2c1=O)c1cccc(Cl)c1,inactive: 6.27%,
Cc1nn(-c2ccccc2)c(OC(=O)c2ccc(F)cc2)c1S(=O)(=O)c1ccccc1,,inactive
CCOC(=O)CSc1nc(-c2ccccc2)cc(C(F)(F)F)c1C#N,inactive: 2.51%,
Cc1ccc(NC(=O)c2c(C(=O)Nc3ccccc3)sc3nc(C)cc(=O)n23)c(C)c1,inactive: -8.72%,
CSc1ncc(C(=O)NCc2ccc(Cl)cc2)c(C(F)(F)F)n1,inactive: 1.62%,
CCn1c(CN2CCCCC2)nc2cc(NC(=O)c3ccccc3[N+](=O)[O-])ccc21,inactive: -10.4%,
Cc1ccc(CNC(=O)Cn2ncc3c([nH]c4ccc(C)cc43)c2=O)cc1,,inactive
COc1cccc(N2CCN(C(=O)c3cc4c(=O)n(Cc5cccs5)ccc4nc3C)CC2)c1,inactive: 19.5%,
CCOC(=O)c1ccc(NC(=O)c2csc3c2CCCC3)cc1,inactive: 0.651%,
O=C(Nc1cccc2cccnc12)c1cccc2ccccc12,inactive: -12.7%,
CCOc1ccc(C(=O)Nc2ccc(C(=O)OCc3cc(=O)n4ccsc4n3)cc2)cc1,inactive: -0.536%,
COC(=O)c1ccc(Cl)cc1NC(=O)NCc1c(-n2cccc2)sc2c1CCCC2,inactive: 14%,
Cc1cccc(NC(=O)Cn2cnc(S(=O)(=O)N3CCCC3)c2)c1C,inactive: -12.3%,
COc1ccccc1CCNC(=O)Cc1c(C)c2cc3c(C(C)(C)C)coc3c(C)c2oc1=O,inactive: -3.8%,
CCCc1cc(=O)[nH]c(SCc2nc(-c3ccc(C)cc3)no2)n1,inactive: -3.07%,
COc1ccc(CCNC(=O)c2ccc(-n3c(C)cc4c3CCCC4)cc2)cc1OC,inactive: -29%,
COc1ccccc1NC(=O)CN1C(=O)CC(c2ccc(C)c(C)c2)=Nc2ccccc21,inactive: -12.1%,
Cc1cccc(Cn2c(SCc3ccc(C(=O)N4CCC(C)CC4)cc3)nc3ccncc32)c1,inactive: -1.35%,

SMILES,"activity change, negative = inhibition",outcome
CCCSc1ncc(Cl)c(C(=O)Nc2c(C(=O)Nc3ccccc3)oc3ccccc23)n1,inactive: -12.1%,
COc1ccc(N2CCN(S(=O)(=O)CCNC(=O)COc3cccc(OC)c3)CC2)cc1,,inactive
Cc1cccc(NC(=O)c2c(NC(=O)c3ccccc3)sc3c2CCCC3)c1,,inactive
Cc1ccc(NC(=O)NCCOCCn2c(=O)oc3ccccc32)cc1F,,inactive
O=C(OCC1CCCO1)c1ccc2c(c1)N(Cc1cccc(Cl)c1)C(=O)c1ccccc1S2(=O)=O (configuration not stated),inactive: -7.01%,
CN1CCSc2ccc(C(=O)NCc3ccccc3F)cc21,inactive: -2.03%,
COC(=O)c1c(C)sc(-c2c(-c3ccc4c(c3)OCCO4)[nH]c3[nH]c(=O)[nH]c(=O)c23)c1O,inactive: 4.3%,
O=S(=O)(c1ccc(Br)cc1)c1nnn2c1nc(Nc1cccc(C(F)(F)F)c1)c1sccc12,inactive: 4.3%,
CCOc1ccc(-c2cc3nc(C4CCN(C(=O)OC(C)(C)C)CC4)c(C(=O)Nc4ccc(C)cc4Cl)cn3n2)cc1,inactive: -9.26%,
Cc1cc(C)c2c(n1)nn1c(C)c(CCC(=O)NCc3ccccc3Cl)c(C)nc21,inactive: -8.33%,
O=C(c1ccc2c(c1)N(Cc1ccc(F)cc1)C(=O)c1ccccc1S2=O)N1CCOCC1 (configuration not stated),,inactive
CCN(c1ccccc1)S(=O)(=O)c1ccc(NC(=O)c2cc(=O)c3cc(C)ccc3o2)cc1,inactive: -8.67%,
COc1ccc(Cl)cc1NC(=O)CSc1c2c(nc3ccccc13)CCC2,inactive: -6.16%,
COc1cc(C(=O)Nc2nc3c(s2)Cc2c(Br)ccc(OC)c2-3)cc(OC)c1OC,inactive: -0.194%,
O=C(Nc1nnc(N2CCCCCC2)s1)Nc1ccccc1C(F)(F)F,inactive: 6.15%,
CCC(Sc1nc2ccccc2c2nc(CCc3c(C)n[nH]c3C)nn12)C(=O)Nc1ccc(OC)cc1 (configuration not stated),inactive: 1.64%,
O=S(=O)(Nc1cccc(-c2ccc(N3CCCC3)nn2)c1)c1ccc(F)cc1F,inactive: 10.2%,
O=S(=O)(c1ccc(F)cc1)N1CCC(n2c(C(F)(F)F)nc3cccnc32)CC1,inactive: -1.52%,
Cc1ccc(S(=O)(=O)c2nc(-c3cccc(C)c3)oc2N2CCCCC2)cc1,,inactive
COc1ccc(CNC(=O)C2CCN(c3nnc(-n4cccc4CNc4ccc(C)cc4)s3)CC2)c(OC)c1,inactive: 1.9%,
Cc1ccccc1-n1c(=O)c2c3c(sc2n2cnnc12)CCCC3,,inactive
COc1ccc(-c2cn3nc(N4CCCC(C(=O)NCc5ccccc5C)C4)sc3n2)cc1 (configuration not stated),inactive: 1.11%,
CCOC(=O)c1ccccc1NC(=O)c1sc2ccccc2c1Cl,inactive: 8.38%,
